This note sets out measurements from paper PMC4336329 (PLoS ONE, 2015).

Screen size: about 310,000 compounds; about 14,000 (4.5%) showed an effect of 50% or more. Effects have a minus sign here. The list shows a part of the results.
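Further: peak tail current of the secondary pulse compared with the same well before compound.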

The target of the test is human ether-à-go-go-related gene (hERG) potassium channel (human, UniProt Q12809). Description: primary screen, population patch clamp on CHO cells stably expressing hERG.
Sequence of human ether-à-go-go-related gene (hERG) potassium channel (Q12809 whole entry, looked up): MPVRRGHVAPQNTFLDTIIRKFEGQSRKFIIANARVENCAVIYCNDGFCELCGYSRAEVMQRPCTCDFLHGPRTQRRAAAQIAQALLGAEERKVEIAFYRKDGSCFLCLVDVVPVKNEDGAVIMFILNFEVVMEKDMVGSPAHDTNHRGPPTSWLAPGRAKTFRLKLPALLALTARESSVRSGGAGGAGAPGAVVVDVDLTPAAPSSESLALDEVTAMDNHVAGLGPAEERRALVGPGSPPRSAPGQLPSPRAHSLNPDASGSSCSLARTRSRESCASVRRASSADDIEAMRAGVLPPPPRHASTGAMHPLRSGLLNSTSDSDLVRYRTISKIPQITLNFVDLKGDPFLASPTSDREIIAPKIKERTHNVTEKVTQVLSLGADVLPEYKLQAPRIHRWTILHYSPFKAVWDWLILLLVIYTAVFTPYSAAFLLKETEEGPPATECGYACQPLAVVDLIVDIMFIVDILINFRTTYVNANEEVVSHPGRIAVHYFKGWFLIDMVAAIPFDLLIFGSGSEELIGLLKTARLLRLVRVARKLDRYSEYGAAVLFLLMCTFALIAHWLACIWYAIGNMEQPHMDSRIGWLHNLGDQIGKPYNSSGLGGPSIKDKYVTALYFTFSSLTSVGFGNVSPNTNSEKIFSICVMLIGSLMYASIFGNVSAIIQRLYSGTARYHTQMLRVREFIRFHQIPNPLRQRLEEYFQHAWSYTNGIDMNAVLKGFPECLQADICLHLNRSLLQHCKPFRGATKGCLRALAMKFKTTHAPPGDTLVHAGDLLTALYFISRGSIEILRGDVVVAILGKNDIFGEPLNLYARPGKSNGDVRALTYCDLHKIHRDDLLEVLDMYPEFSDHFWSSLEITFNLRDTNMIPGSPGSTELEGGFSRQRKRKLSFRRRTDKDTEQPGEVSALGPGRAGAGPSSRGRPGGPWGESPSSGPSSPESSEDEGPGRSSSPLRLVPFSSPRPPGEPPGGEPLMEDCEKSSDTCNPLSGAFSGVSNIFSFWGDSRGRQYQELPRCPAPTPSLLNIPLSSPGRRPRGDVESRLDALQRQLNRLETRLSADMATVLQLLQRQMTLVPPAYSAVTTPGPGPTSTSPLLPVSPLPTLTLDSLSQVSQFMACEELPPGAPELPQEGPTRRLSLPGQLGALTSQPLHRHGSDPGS
For `CCCCCC(=O)Nc1cc(S(=O)(=O)N2CCCCC2)ccc1N1CCOCC1`, the “hERG current change (%, negative = inhibition) at 10uM” value is given as -12.6%.
As for `Cc1cc(Br)ccc1NC(=O)CN1CCN(c2ccccn2)CC1`, the “hERG current change (%, negative = inhibition) at 10uM” value is -71.5%.
Regarding `CCc1cc2c(SCc3nc4sc(C(C)=O)c(C)c4c(=O)[nH]3)ncnc2s1`, the “hERG current change (%, negative = inhibition) at 10uM” value turned out to be 16.8%.
Regarding `CCOC(=O)C(C)Sc1nnc(-c2ccccc2O)n1-c1ccc(C)cc1` (centres unmarked), the “hERG current change (%, negative = inhibition) at 10uM” value is given as -4.83%.
Turning to `Cc1ccc(/C=C2\OC(=O)c3ccccc32)cc1`, the “hERG current change (%, negative = inhibition) at 10uM” value was found to be 14.9%.
On to `Cc1ccc(C)c(S(=O)(=O)N2CCN(C(=O)CCc3c[nH]c4ccccc34)CC2)c1`, for which the “hERG current change (%, negative = inhibition) at 10uM” value was -35.4%.
For the molecule `COc1ccc(/C=N/O)cc1COc1ccc(NC(C)=O)cc1`, the “hERG current change (%, negative = inhibition) at 10uM” value is recorded as -16.7%.
For `C/C(=N/NC(=O)CNc1ccc(C)cc1)c1ccc(Cl)cc1`, the “hERG current change (%, negative = inhibition) at 10uM” value was determined as 6.28%.
To `CCC(C)NC(=O)CCn1c(=O)c2cccn2c2ccc(F)cc21` (centres unmarked) belongs 3.96%; to `COc1cnn(-c2ccccc2)c(=O)c1SCc1ccc(Cl)cc1Cl`, -21.4%; to `COCCn1c(Cc2ccccc2)nnc1SCC(=O)N1CCCC1=O`, 6.8%.
For the molecule `CCOc1ccccc1C(=O)NCC(=O)OCc1c(C)noc1C`, the “hERG current change (%, negative = inhibition) at 10uM” value came out at 4.77%.
In the case of `CCOC(=O)c1ccccc1NC(=O)COC`, the “hERG current change (%, negative = inhibition) at 10uM” value was -8.07%.
To `COC(=O)[C@@]12CCCCN1[C@H](c1ccc(SC3CCCCC3)cc1)[C@@H]1C(=O)N(C)C(=O)[C@@H]12.O=C(O)C(F)(F)F` belongs 15.2%.
Regarding `Cc1nc2ccc(S(=O)(=O)c3ccc4nc(C)[nH]c4c3)cc2[nH]1`, the “hERG current change (%, negative = inhibition) at 10uM” value amounted to 31.4%.
To `CN(CCc1ccccc1)C1CCCN(S(=O)(=O)N(C)C)C1` (centres unmarked) belongs -15.7%; to `COc1cc(/C=C2/C(C)=C(C#N)c3nc(N)c(C#N)c(C)c32)ccc1OCC(=O)O`, 15.2%.
Take `CC(O)/C=C/C1OC(=O)CC1Nc1ccc(C=O)cc1` (centres unmarked): the “hERG current change (%, negative = inhibition) at 10uM” value was 3.72%.
Consider `OC1C2CN3CCN(C2)CC1(Cc1ccccc1)C3` (centres unmarked), for which the “hERG current change (%, negative = inhibition) at 10uM” value is recorded as -0.552%.
For `Br.COc1c2c(cc3c1OCO3)CCN(C)C2`, the “hERG current change (%, negative = inhibition) at 10uM” value is 0.899%.
To `O=C(Cc1ccccc1)NCC(=O)OCC(=O)c1cccs1` belongs -12.3%.
With `Cc1nn(-c2ccc([N+](=O)[O-])cc2)c2c1C(c1cccc(Br)c1)N1C(=N2)C(=O)Nc2ccccc21` (centres unmarked), the “hERG current change (%, negative = inhibition) at 10uM” value was 2.1%.
Take `O=C(CSc1nnc(Nc2ccccc2)s1)Nc1cccc(S(=O)(=O)N2CCCCC2)c1`: the “hERG current change (%, negative = inhibition) at 10uM” value is -0.847%.
On to `C=CC(C)(C)O[C@@H]1O[C@H](CO)[C@@H](O)[C@H](O)[C@H]1O`, for which the “hERG current change (%, negative = inhibition) at 10uM” value is 40.6%.
With `CC(OC(=O)c1cc2sccc2n1C)C(=O)NCc1cccs1` (centres unmarked) the figure was -7.34%.
For the molecule `Cc1nnc(NC(=O)CSc2ccccn2)s1`, the “hERG current change (%, negative = inhibition) at 10uM” value was 1.51%.
In the case of `CCOc1cccc(-c2cc(C(=O)N/N=C/c3ccc(OC)c(CN4CCOCC4)c3)c3ccccc3n2)c1`, the “hERG current change (%, negative = inhibition) at 10uM” value was found to be 12.9%.
Turning to `COc1ccc(OC)c(CN2CCC(N3CCC(C(=O)NC4CC4)CC3)CC2)c1`, the “hERG current change (%, negative = inhibition) at 10uM” value is on record as -11.1%.
To `O=C(CCCn1c(=O)[nH]c2cc(Cl)ccc2c1=O)NCC1CCCO1` (centres unmarked) belongs -1.69%; to `Oc1cc2c(cc1CN1CCN(c3ncccn3)CC1)OCO2`, 19.1%; to `O=C(NCCSc1ncc(-c2ccccc2)[nH]1)c1ccco1`, -13.6%.
For the molecule `O=C(O)c1ccc(S(=O)(=O)N(CCc2ccccc2)Cc2ccc(Cl)cc2)cc1`, the “hERG current change (%, negative = inhibition) at 10uM” value amounted to 14.4%.
Regarding `Nc1cc(S(=O)(=O)N2CCCCC2)ccc1Oc1ccccc1`, the “hERG current change (%, negative = inhibition) at 10uM” value was -10.3%.
As to `COCCOC(=O)C1=C(C)N(Cc2ccccc2)C(=O)NC1c1cccc(OC)c1OC` (centres unmarked), the “hERG current change (%, negative = inhibition) at 10uM” value is recorded as -21.3%.
Regarding `Cn1cccc1/C=N/NC(=O)c1ccco1`, the “hERG current change (%, negative = inhibition) at 10uM” value is reported as 6.83%.
On to `C/C(CC(=O)Nc1ccc2ccccc2c1)=N\NC(=O)c1ccc(O)c(O)c1`, for which the “hERG current change (%, negative = inhibition) at 10uM” value is -6.73%.
Take `O=C(Nc1scc(-c2ccccc2)c1C(=O)O)c1ccccc1F`: the “hERG current change (%, negative = inhibition) at 10uM” value worked out at 17.3%.
Turning to `Cc1cc(C(=O)OCC(=O)N2CCCCCC2)ccc1[N+](=O)[O-]`, the “hERG current change (%, negative = inhibition) at 10uM” value is listed as -3.13%.
To `C=CCN=C1NN=C(c2cc(C)n(CCOC)c2C)CS1.Cl` belongs -16%.
`CNC(=S)Nc1cc(C(F)(F)F)ccc1Cl`: the “hERG current change (%, negative = inhibition) at 10uM” value is -17.5%.
For the molecule `COc1ccccc1/C=C/C=C1N=C(/C=C/c2ccc(Cl)cc2)OC/1=O`, the “hERG current change (%, negative = inhibition) at 10uM” value is on record as -1.07%.
As for `Cc1cccc(Cn2c(=O)n(-c3ccc(CC(=O)NCc4ccco4)cc3)c(=O)c3sccc32)c1`, the “hERG current change (%, negative = inhibition) at 10uM” value turned out to be 0.339%.
To `Cc1ccnc2nc(C(=O)OCCOc3cccc(Br)c3)nn12` belongs -27.9%; to `CC(C(=O)NCC(=O)Nc1ccc(F)c(F)c1F)N1CCN(Cc2ccc(C#N)cc2)CC1` (centres unmarked), -61%; to `O=C(Nc1ccc(-c2nc3ccccc3s2)cc1)C1=COCCO1`, 22.2%.
To `Cc1ccc(/C=N/n2nnnc2N)cc1[N+](=O)[O-]` belongs 6.16%; to `COc1cccc(CNC(=O)Cn2cccc2)c1`, -1.98%.
Regarding `COc1ccc(NC(=O)C(C)NS(=O)(=O)c2ccccc2)cc1Cl` (centres unmarked), the “hERG current change (%, negative = inhibition) at 10uM” value was -18.9%.
Turning to `Br.Clc1ccc(C2=CSC3=NCCN23)cc1Cl`, the “hERG current change (%, negative = inhibition) at 10uM” value was -48.2%.
Turning to `Cc1cc(NC(=O)COC(=O)[C@H](Cc2c[nH]c3ccccc23)NC(=O)c2ccc(F)cc2)no1`, the “hERG current change (%, negative = inhibition) at 10uM” value is on record as -16.1%.
Regarding `COc1ccc(C2SCC(=O)Nc3c2c(=O)[nH]n3C2CCCCCC2)cc1` (centres unmarked), the “hERG current change (%, negative = inhibition) at 10uM” value was found to be 2%.
To `CN(C)c1cccc(C(=O)Nc2cccc(F)c2)c1` belongs 5.67%.
`COc1ccc(NC2c3ncccc3C(=O)N2Cc2ccccc2)c(OC)c1` (centres unmarked): the “hERG current change (%, negative = inhibition) at 10uM” value is -10.4%.
As for `COc1cccc(/C=N/NC(=O)Cn2ccnc2C)c1`, the “hERG current change (%, negative = inhibition) at 10uM” value was -16.7%.
For the molecule `CCC(=O)N1CCn2c1nc1ccccc12`, the “hERG current change (%, negative = inhibition) at 10uM” value was determined as 10.1%.
Consider `COc1cc(-c2nc(C(F)(F)F)c(OC)o2)cc(OC)c1OC`, for which the “hERG current change (%, negative = inhibition) at 10uM” value turned out to be 8.27%.
With `COc1ccc(C2CC(c3ccco3)n3ncnc3N2)cc1` (centres unmarked) the figure was -15.6%.
To `O=C(COC(=O)c1cnc(Cl)c(Cl)c1)NCc1ccc2c(c1)OCO2` belongs 16.4%.
As to `COc1ccccc1OCc1ccc(C(=O)N2CCOCC2)o1`, the “hERG current change (%, negative = inhibition) at 10uM” value worked out at 1.95%.
As to `COc1ccc(Cl)cc1NC(=O)CC(C)=O`, the “hERG current change (%, negative = inhibition) at 10uM” value turned out to be 5.08%.
With `COCCN(CC(=O)Nc1ccccc1C(F)(F)F)C(=O)/C=C/c1ccc2ccccc2n1` the figure was -17.6%; with `Cc1ccc(S(=O)(=O)N2CCCCC2)cc1C(=O)NC1CCCCC1`, 17.8%.
Turning to `COc1ccc(Br)cc1CNc1ccc(O)cc1`, the “hERG current change (%, negative = inhibition) at 10uM” value was -4.69%.
As to `CCN1CCN(c2ccc(NC(=O)COc3ccc([N+](=O)[O-])cc3)cc2)CC1`, the “hERG current change (%, negative = inhibition) at 10uM” value is listed as -54.3%.
To `O=C1Cc2ccccc2Sc2ccccc21` belongs 1.13%.
`COc1ccc(C2Nc3ccccc3C(=O)N2c2ccc(C)cc2)cc1Cn1cc([N+](=O)[O-])cn1` (centres unmarked): the “hERG current change (%, negative = inhibition) at 10uM” value is recorded as 0.322%.
With `O=C(/C=C/Nc1ccc(F)cc1F)c1ccco1`, the “hERG current change (%, negative = inhibition) at 10uM” value was -2.25%.
With `Cc1ccnc(NCc2cccc3ccccc23)c1.Cl`, the “hERG current change (%, negative = inhibition) at 10uM” value is 14%.
`Cc1ccc(N(C(=O)Nc2ccccc2)C2=NCCC2)cc1`: the “hERG current change (%, negative = inhibition) at 10uM” value was found to be 10.8%.
In the case of `O=C(CCS(=O)(=O)c1ccc(Cl)cc1)N1CCN(c2ccc(F)cc2)CC1`, the “hERG current change (%, negative = inhibition) at 10uM” value was -76.1%.
`CC(C)(C)C(=O)NC1CCN(S(=O)(=O)c2cccc(C(F)(F)F)c2)CC1`: the “hERG current change (%, negative = inhibition) at 10uM” value is -15.7%.
Take `Cc1nn(-c2ccccc2)c(N2CCCC2)c1/C=N/NC(=S)Nc1ccccc1F`: the “hERG current change (%, negative = inhibition) at 10uM” value was 3.38%.
Regarding `CC1=NN(c2ccccc2)C(=O)C1C=Nc1ccc(N(C)C)cc1` (centres unmarked), the “hERG current change (%, negative = inhibition) at 10uM” value is 19.4%.
Regarding `Cc1ccc(NC(=O)CSc2nnc(C)c(=O)n2N)cc1Cl`, the “hERG current change (%, negative = inhibition) at 10uM” value is reported as -9.11%.
As for `COc1ccc(CCNC(=O)c2c(O)c3ccccc3[nH]c2=O)cc1`, the “hERG current change (%, negative = inhibition) at 10uM” value came out at 15.4%.
For the molecule `O=C(CCNC(=O)Cn1cnc2ccccc2c1=O)NCCC1=CCCCC1`, the “hERG current change (%, negative = inhibition) at 10uM” value was found to be 13.2%.
With `Cc1[nH]c2ccccc2c1/C=N/NC(=O)Nc1ccccc1`, the “hERG current change (%, negative = inhibition) at 10uM” value was found to be 21.5%.
Regarding `C1CCN(C2CCN(c3nc4nonc4nc3N3CCSCC3)CC2)C1`, the “hERG current change (%, negative = inhibition) at 10uM” value is -18%.
To `CSc1nnc(NC(=O)c2cccc(S(=O)(=O)N3CCOCC3)c2)s1` belongs -5%; to `CC(=O)Nc1ccc(S(=O)(=O)NC2CC(=O)N(c3ccc4c(c3)OCCO4)C2)cc1` (centres unmarked), 6.77%; to `c1ccc2c(Nc3nc(-c4ccncc4)nc4ccccc34)cccc2c1`, 20.1%.
On to `CCOC(=O)c1c(NC(=O)COC(=O)Cn2c(C)nc3ccccc32)sc2c1CCCC2`, for which the “hERG current change (%, negative = inhibition) at 10uM” value amounted to 11.1%.
As to `COc1ccc(CNC(=O)C2CC(=O)N(C3CCCC3)C2)cc1` (centres unmarked), the “hERG current change (%, negative = inhibition) at 10uM” value was -8.14%.
With `CCc1ccc(NC(=O)N(CCCN2CCOCC2)Cc2cccs2)cc1`, the “hERG current change (%, negative = inhibition) at 10uM” value was -52.8%.
With `Cc1ccc(NC(=O)C(C)OC(=O)CCN=C2NS(=O)(=O)c3ccccc32)cc1` (centres unmarked) the figure was 0.785%.
Take `c1ccc(Nc2nc(N3CCNCC3)nc(N3CCOCC3)n2)cc1`: the “hERG current change (%, negative = inhibition) at 10uM” value is -43%.
In the case of `COc1ccc(N(C(C)C(=O)N2CCCC2)S(C)(=O)=O)cc1` (centres unmarked), the “hERG current change (%, negative = inhibition) at 10uM” value is listed as 14.8%.
As for `CC(C)CN(CC(C)C)C(=O)CN1C(=O)NC2(CCCc3ccccc32)C1=O` (centres unmarked), the “hERG current change (%, negative = inhibition) at 10uM” value was 11.3%.
Turning to `COc1ccc(-c2ccc(C#N)c(OC(=O)c3c(Cl)cccc3Cl)n2)cc1`, the “hERG current change (%, negative = inhibition) at 10uM” value turned out to be 24.1%.
